Source: paper PMC4336329 (PLoS ONE, 2015)
Screen size: about 310,000 compounds; about 14,000 (4.5%) showed an effect of 50% or more. The effect is printed as a negative number. The list shows a part of the results.

Molecular target: human ether-à-go-go-related gene (hERG) potassium channel (human, UniProt Q12809)
Experiment: primary screen, population patch clamp on CHO cells stably expressing hERG
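Note: peak tail current of the secondary pulse compared with the same well before compound.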

Sequence of human ether-à-go-go-related gene (hERG) potassium channel (Q12809 whole entry, looked up): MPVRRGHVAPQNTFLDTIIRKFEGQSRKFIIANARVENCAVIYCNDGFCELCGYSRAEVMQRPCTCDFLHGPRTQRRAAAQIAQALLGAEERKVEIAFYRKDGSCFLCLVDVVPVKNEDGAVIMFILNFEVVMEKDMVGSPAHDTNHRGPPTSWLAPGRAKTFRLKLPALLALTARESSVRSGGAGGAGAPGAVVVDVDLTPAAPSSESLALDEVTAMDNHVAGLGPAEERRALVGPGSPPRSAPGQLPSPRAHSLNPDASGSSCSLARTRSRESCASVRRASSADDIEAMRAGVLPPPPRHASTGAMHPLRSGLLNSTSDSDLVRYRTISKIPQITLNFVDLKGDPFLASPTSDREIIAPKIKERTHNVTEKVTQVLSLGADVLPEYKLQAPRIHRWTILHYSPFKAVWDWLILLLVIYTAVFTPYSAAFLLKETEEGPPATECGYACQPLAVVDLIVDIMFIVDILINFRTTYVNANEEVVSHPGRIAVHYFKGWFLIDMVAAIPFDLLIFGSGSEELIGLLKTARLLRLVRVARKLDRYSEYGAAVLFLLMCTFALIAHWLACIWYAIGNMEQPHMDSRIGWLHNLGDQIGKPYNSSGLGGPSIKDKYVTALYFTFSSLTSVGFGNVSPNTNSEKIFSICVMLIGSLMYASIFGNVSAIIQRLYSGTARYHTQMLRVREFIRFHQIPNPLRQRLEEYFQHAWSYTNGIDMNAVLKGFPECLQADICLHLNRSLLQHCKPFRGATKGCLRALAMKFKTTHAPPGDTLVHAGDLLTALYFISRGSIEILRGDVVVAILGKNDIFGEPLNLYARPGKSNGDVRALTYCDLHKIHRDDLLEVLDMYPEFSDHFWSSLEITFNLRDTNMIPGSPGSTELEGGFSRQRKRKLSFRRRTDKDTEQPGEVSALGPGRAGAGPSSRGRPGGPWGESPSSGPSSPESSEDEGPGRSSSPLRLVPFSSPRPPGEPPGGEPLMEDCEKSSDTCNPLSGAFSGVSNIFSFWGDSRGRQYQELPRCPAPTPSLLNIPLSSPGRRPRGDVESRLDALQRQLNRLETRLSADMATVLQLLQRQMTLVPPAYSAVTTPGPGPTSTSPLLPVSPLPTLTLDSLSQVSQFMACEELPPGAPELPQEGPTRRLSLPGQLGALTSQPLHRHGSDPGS

SMILES | hERG current change (%, negative = inhibition) at 10uM
Cc1ccc2nc(C(=O)O)c(C(=O)O)nc2c1 | 6.96%
NS(=O)(=O)c1ccc(NC(=O)c2ccccc2Cl)cc1 | 16.4%
Cc1cc(C)c(NC(=O)CNC(=O)COC(=O)Cc2cccs2)c(C)c1 | -2.81%
Cc1ccc(-c2noc(CN3CCCCC3)n2)cc1 | 34.6%
COc1cc(/C=N/Nc2ccccc2)ccc1O | -1.52%
CCOP(=O)(OCC)c1nc(-c2ccc(F)cc2)oc1NCc1ccccc1 | -32.4%
Clc1ccccc1-c1nnc2n1CCCCC2 | 9.14%
Cc1cc(C)n(-c2ccc(C(=O)Nc3cc(S(=O)(=O)N(C)C)ccc3Cl)cc2)n1 | -3.29%
CCC(=O)N1CCc2cc(S(=O)(=O)N3CCN(c4ccccn4)CC3)ccc21 | 10.9%
CCC(=O)N1c2ccc(S(=O)(=O)CCC(=O)N3CCN(c4ccccc4F)CC3)cc2CC1C (centres unmarked) | -22.7%
COc1ccc(S(=O)(=O)N2CCC(C(N)=O)CC2)cc1C(=O)N1CCCCCC1 | 12.6%
Cc1ccc(C2CC(C(F)(F)F)n3nc(C(=O)Nc4c(C)n(C)n(-c5ccccc5)c4=O)cc3N2)cc1 (centres unmarked) | 3.88%
O=C(CNC(=O)c1cccc([N+](=O)[O-])c1)NC1CCCc2ccccc21 (centres unmarked) | -8.58%
O=C1c2ccccc2C(=O)N1CCC(c1ccccc1)c1ccco1 (centres unmarked) | -15.5%
CN(C)/C=C1\C(=O)N(c2ccc([N+](=O)[O-])cc2)N=C1c1ccccc1 | -38.1%
Cc1nc2ccc(N=NC3=C(O)CCCC3=O)cc2s1 | 10.2%
COCCn1c(SCC(=O)Nc2sc(C)c(C)c2C#N)nnc1-c1ccc(OC)cc1 | -52.1%
COc1ccc(C(=O)CCN2CCN(c3ccccc3OC)CC2)cc1.Cl | -50.3%
COc1cccc(NC(=O)CN(C)C(=O)c2cc(S(=O)(=O)N3CCCCCC3)ccc2OC)c1 | -50.9%
CCCCc1ccc(NC(=O)CSC2=C(C#N)C(c3ccco3)C3=C(CCCC3=O)N2)cc1 (centres unmarked) | 10.3%
Cc1cccc(N2CCN(C(c3ccccc3)c3nnnn3CC3CCCO3)CC2)c1C (centres unmarked) | 4.3%
O=C(NCc1ccccc1)NC1(C(=O)N2CCN3CCCC3C2)CCCCC1 (centres unmarked) | -1.89%

SMILES | hERG current change (%, negative = inhibition) at 10uM
Cc1ccc2c(c1)c1c3n2CC(=C2C(=O)OC(C)(C)OC2=O)NC3CCC1.Cl (centres unmarked) | -29.5%
COCCCn1c(Cc2csc(Nc3cccc(Cl)c3)n2)nnc1SCC(=O)OC1CCCCC1 | -11%
COCCCn1c(-c2ccc(Cl)cc2)n[nH]c1=S | 16.1%
Cc1cc(NC(=O)c2ccc3c(c2)C(=O)N(CC(C)C)C3=O)no1 | 2.6%
Cn1cc(Cl)c(C(=O)N2CCN(c3ncccn3)CC2)n1 | 10.6%
COc1ccccc1N(CC(=O)NC1CCCC1)C(=O)CCC(=O)Nc1cc(C)on1 | 10.1%
Cc1ccnc(NC(=O)CSc2ccccn2)c1 | 22.6%
COc1cccc2sc(N(CCCN(C)C)C(=O)c3sc4ccccc4c3Cl)nc12.Cl | -24.6%
Cc1ccc(CNC(=O)C2CCC(CNc3c(N4CCOCC4)c(=O)c3=O)CC2)cc1 (centres unmarked) | 15.4%
Cc1ccc(S(=O)(=O)/N=C2/NC(=O)/C(=C/c3ccccc3)S2)cc1 | -47.1%
CCOC(=O)c1sc(NC(=O)c2sccc2C)cc1C | 3.8%
O=C(Cn1nnc(-c2ccccc2)n1)N/N=C/c1ccco1 | 25.3%
CCNC(=S)N1CCN(S(=O)(=O)c2cccc(C(F)(F)F)c2)CC1 | 0.783%
O=C(COC(=O)c1n[nH]c2ccccc12)c1ccc(F)c(F)c1 | -4.91%
O=[N+]([O-])c1ccc(N2CCOCC2)cc1O | -6.04%
CC1=C(C)CC(C(=O)c2ccc(C)cc2)C(C(=O)O)C1 (centres unmarked) | -3.59%
C=CCN(c1ccc(C(=O)OC)cc1)S(=O)(=O)c1ccccc1 | -7.78%
COc1cc2c(cc1OC)C(C(=O)Nc1cccc(C)n1)C(c1cccnc1)N(C)C2=O (centres unmarked) | -9.56%
Cc1nnc(NC(=O)CSc2ccc3nnc(-c4ccccn4)n3n2)s1 | -9.79%
COc1ccc(-n2nc3c(c2NC(=O)c2ccccc2S(=O)(=O)C(F)F)CS(=O)(=O)C3)cc1 | -9.27%
COc1ccc(Br)cc1/C=c1\sc2nc(-c3ccco3)nn2c1=O | 12.8%
COCCNC(=O)CSc1nc2c(n1-c1ccccc1)CCCC2 | 12.9%

SMILES | hERG current change (%, negative = inhibition) at 10uM
Cc1ccc(SCc2ccc(C(=O)Nc3ccccc3C(=O)NC(C)C)cc2)cc1 | 13.6%
O=C1CC(c2ccc3c(c2)OCCO3)Oc2ccccc21 (centres unmarked) | 3.81%
CN(c1ncc(C(F)(F)F)cc1Cl)N1C(=O)c2cccc([N+](=O)[O-])c2C1=O | 1.97%
O=C(Nc1ccc(N2CCCC2)cc1)c1ccccc1[N+](=O)[O-] | 5.14%
Cc1cc(C)cc(-n2nnc(C(=O)NCc3ccco3)c2N)c1 | -29.8%
O=C(Cc1n[nH]c(=O)[nH]c1=O)N/N=C/c1ccccc1 | 2.78%
CC(=O)COc1ccc2oc(=O)cc(-c3cc4ccccc4o3)c2c1 | -2.1%
CCN(CC)C(=O)c1[nH]cnc1C(=O)NCC(=O)OC(C)(C)C | -8.81%
Cc1ccc(C)c(NC(=O)CSc2nccn2Cc2ccco2)c1 | -0.144%
CCS(=O)(=O)N1CCC(C(=O)Oc2ccc(Br)cc2)CC1 | 9.82%
CC(C)CSC1=NSC2=NC(=O)/C(=C\c3cccs3)C(=N)N12 | 20.2%
Cc1cc(=O)n(CC(=O)NC2CC2)c2c1c(C)nn2-c1ccccc1 | 18.8%
CC1(C)CC(=O)C(C=Nc2ccc(NC3=C(C#N)C(=O)CC(C)(C)C3)cc2)=C(O)C1 | 11%
C=C1C[C@H]2[C@@H]3C=C(C)C4=CC(=O)CC[C@]4(C)[C@H]3CC[C@]2(C)[C@@]1(OC(C)=O)C(C)=O | -21.2%
Cc1cc(C)c2cc3c(N)c(C(=O)Nc4c(C)[nH]c(=O)[nH]c4=O)sc3nc2c1 | 0.789%
O=C(NC1CCCC1)c1cccc2c1C(=O)c1ccc(Cl)cc1S2(=O)=O | 2.87%
O=S(=O)(Nc1cccc2ncccc12)c1cccs1 | -13%
CCCCCCOC(=O)Cc1c(C)nc(N)[nH]c1=O | 5.25%
COc1ccc(/C=C2\CCCC(C(=O)C(F)(F)F)=C2O)cc1 | 16.3%
COc1ccc([N+](=O)[O-])cc1NC(=O)CCS(=O)(=O)c1ccc(Br)cc1 | -0.991%
COc1cc2c(cc1C=O)OCO2 | 4.19%
COc1cc(-c2nnc(-c3cc(OC)c(OC)c(OC)c3)o2)cc(OC)c1OC | 0.923%

SMILES | hERG current change (%, negative = inhibition) at 10uM
CCNC(=O)NC(=O)C(C)Oc1ccc(C(=O)OC)cc1 (centres unmarked) | 3.92%
CN1CCN(C(=O)C(C(=O)c2ccc(F)cc2)n2ccccc2=O)CC1 (centres unmarked) | -1.24%
COCCNC(=O)c1ccc(Cn2c(SCC(=O)NCC3CCCO3)nc3ccc(Br)cc3c2=O)cc1 (centres unmarked) | -17.6%
COc1cccc(OCCCOc2ccccc2C(C)C)c1 | -3.28%
CC(=O)Nc1ccc(N2C(=O)c3ccc(S(=O)(=O)c4ccc(C(=O)O)cc4)cc3C2=O)cc1 | 8.06%
O=C(Oc1ccc2c(c1)CCC2)N1CCOCC1 | 12.4%
O=C(CCCN1C(=O)c2cccc3cccc(c23)C1=O)N1CCN(c2ccc(F)cc2)CC1 | -1.91%
COc1ccc(NC(=O)C2CCCN2S(=O)(=O)c2ccc3c(c2)CCC(=O)N3)c(OC)c1 (centres unmarked) | -16.8%
O=[N+]([O-])c1cc(S(=O)(=O)Nc2ccccc2)ccc1NCc1cccnc1 | -0.455%
COc1ccc(-c2cc(C(=O)NNC3=NCCC3)c3c(C)nn(-c4ccccc4)c3n2)cc1 | 10.8%
CCc1cc(C(=O)NNC(=S)NC(C)c2ccccc2)cs1 (centres unmarked) | 2.63%
Cc1cccc(C(=O)N[C@H](C(=O)Nc2cc(S(=O)(=O)N3CCCCC3)ccc2C)C(C)C)c1 | 7.99%
COc1ccccc1N1CCN(C(=O)C2CCCN(S(=O)(=O)c3ccc4c(c3)CCCN4C(C)=O)C2)CC1 (centres unmarked) | 8.54%
CC(=O)c1cnc2c(-c3ccccc3)c(C)nn2c1C | -2.36%
Cn1c(=O)c2c(ncn2CC(O)CO)n(C)c1=O (centres unmarked) | 9.46%
CCOc1ncccc1C(=O)OCC(=O)c1ccc(C)c(C)c1 | -20.2%
Cc1ccc(OCc2cc(C(=O)N(C)Cc3cc(C4CC4)n[nH]3)no2)cc1C | 7.98%
Cc1ccc(N/N=C/c2c(O)n(-c3ccccc3)c(=O)[nH]c2=O)cc1 | 4.73%
Cc1cc(Cl)ccc1NC(=S)NCc1ccc(S(N)(=O)=O)cc1 | 5.2%
COc1ccc([C@H]2CC(=O)C=C(c3cccc(Cl)c3)C2)cc1 | -11.8%
